The RNAGym collection of RNA variant scans (doi:10.7554/elife.90254)
Read counts are not given, so values of variants with three or more changes are uncertain.

B1: LINE1-full (parent)
chain: UACGUAGGUGGUUUUCCCCUGAUAGUGCUAAGGGGGCCUGGAAGUUUGGACUGGGCAGAGCUCAACACAGCGUGGCAAAGUGGCUGUGGCUAGACUGCCUCUCUGGAUUCCUCGUCACUCAGCAGGGCAUCUCUGAGAGAAAUGCC

Variants of: B1
Assay: self-cleavage, relative activity (ratio to wild type); higher = more cleavage; in vitro, sequencing; the parent is a self-cleaving ribozyme
With A22G G60A A78G the self-cleavage was 0.
Work on A22G U26A A78G yielded a self-cleavage of 1.02.
In the case of U20C A69G A129U, the self-cleavage is reported as 0.96.
Work on U20G U85C U91C U96A C145A yielded a self-cleavage of 0.
In the case of G21A U46C U143C, the self-cleavage is reported as 0.95.
Work on G21A A43U A67G G72A U85A U96A G127A yielded a self-cleavage of 0.05.
With U20C U23A U119C the self-cleavage was 0.91.
Work on A22G G33C U39A yielded a self-cleavage of 1.88.
Variant A22G A78G A141G has a self-cleavage of 0.57.
Work on A22G A50G A124G yielded a self-cleavage of 0.71.
U20C U73C G88A showed a self-cleavage of 0.1.
For A22G A78G U134A A141G, the self-cleavage was 0.88.
U20C A59G U73A C99U gave a self-cleavage of 0.02.
In the case of A22G U47A C103U U132C, the self-cleavage is reported as 1.68.
U20C G93A U96C U130C showed a self-cleavage of 0.
In the case of U20G A107G A142G, the self-cleavage is reported as 1.84.
Variant U20C A50G G125U has a self-cleavage of 1.13.
U20C G72A A77U showed a self-cleavage of 1.41.
Variant G21A U108C G135A has a self-cleavage of 0.54.
In the case of U20C A22G A140G, the self-cleavage is reported as 1.39.
Work on U20C U52A G97A yielded a self-cleavage of 0.13.
With A22G U26C G70C U102C G125U the self-cleavage was 0.37.
Variant U20G U45C A79G has a self-cleavage of 1.89.
In the case of U20C U73C A141G, the self-cleavage is reported as 1.97.
Variant U20C A31U A136G has a self-cleavage of 1.67.
Work on A22G A43G U132A yielded a self-cleavage of 0.93.
For U20A U81G U96C G139U, the self-cleavage was 0.09.
With U20A U81A A136G the self-cleavage was 1.84.
A22G A50G U100A A142C gave a self-cleavage of 0.42.
Work on A22G A57G U62C yielded a self-cleavage of 0.37.
A22G A43G G74A U96C A136G showed a self-cleavage of 0.07.
A22G A57G U132C showed a self-cleavage of 1.6.
Variant G21A G105A A138G has a self-cleavage of 1.94.
For A22G A65U U102A U104A U112C, the self-cleavage was 0.2.
In the case of U20G U45C U62C A142G, the self-cleavage is reported as 0.25.
A22G U62C U102C U119C A140G showed a self-cleavage of 0.
U20C C37A A77G showed a self-cleavage of 1.54.
With U20C U45C G53U U119A A129G the self-cleavage was 1.21.
With U20C G36C U109C the self-cleavage was 1.08.
In the case of U20C U29A A30G U62C, the self-cleavage is reported as 0.44.
Variant U20C A124U A142G has a self-cleavage of 0.58.
In the case of U20C G41A A42G, the self-cleavage is reported as 1.56.
A22G A77U U81C U132C gave a self-cleavage of 1.93.
In the case of A22G A42G A77G, the self-cleavage is reported as 2.09.
Variant U20A U87C U102C G127U U130C A142G has a self-cleavage of 0.29.
With U20C A43G U73C U132C the self-cleavage was 0.66.
A22G U29C A43U U45A U73A showed a self-cleavage of 2.05.
In the case of U20C A31U U73A, the self-cleavage is reported as 1.09.
G21A A22G G122A gave a self-cleavage of 1.
Work on G21U C66U U112C yielded a self-cleavage of 0.03.
With U20C G82A U132C the self-cleavage was 1.9.
U20C A42U U73C A136G gave a self-cleavage of 0.35.
A22G C116A G122C A124U showed a self-cleavage of 0.24.
Work on A22G A67U A92G U96A U100C yielded a self-cleavage of 0.
Work on A22G A31U G82A yielded a self-cleavage of 0.51.
Work on U20C G41A U73G A94G A141G yielded a self-cleavage of 0.45.
Variant U20C A77G C99U has a self-cleavage of 1.37.
With U20G A64G A92U A121C A129U the self-cleavage was 0.25.
For U20G A31G U100C, the self-cleavage was 0.84.
Work on A22G A59G A107G A140G yielded a self-cleavage of 1.02.
U20C A22U U112A gave a self-cleavage of 0.93.
With A22G A57G C98A U115A A136G the self-cleavage was 0.12.
U20C A50G U73C gave a self-cleavage of 0.
Variant A22G U52C A65G G83U U104A has a self-cleavage of 0.09.
U20C G41A A140G gave a self-cleavage of 1.03.
U20C C37U A136G showed a self-cleavage of 0.4.
With U20C A24G U46A U130A U143A the self-cleavage was 0.57.
Variant A22G U29A U39A A67U has a self-cleavage of 0.51.
Variant U20C A22U U85C has a self-cleavage of 0.
Variant A22G U52C A59U has a self-cleavage of 1.38.
Work on A22G A64U U73A C76U U85A A142G yielded a self-cleavage of 0.05.
U20G A42G G54A A107U A142G showed a self-cleavage of 0.66.
In the case of U20G U52G A129G, the self-cleavage is reported as 2.76.
Variant U20C U100C U115C has a self-cleavage of 1.53.
Variant U20C A77U A140G has a self-cleavage of 1.36.
With U20C A57U A67G C95U the self-cleavage was 0.04.
With A22G A136G A140G the self-cleavage was 2.25.
With A22G U39C A77G the self-cleavage was 2.76.
Work on U20C U45C A65G yielded a self-cleavage of 0.
With U20C A64U U130C the self-cleavage was 0.8.
Work on U20C U23C A59U C84A A92U U112C yielded a self-cleavage of 0.06.
A22G U23C C56U A69U G106A A136G gave a self-cleavage of 0.04.
Work on U20C U108C A117U yielded a self-cleavage of 1.64.
With G21A U73A U115C A140G the self-cleavage was 1.3.
A22G A78G U96A showed a self-cleavage of 0.18.
A22G C84G U85C G89A U130C U134A gave a self-cleavage of 0.16.
With A22G A57U A129U U134C the self-cleavage was 0.2.
Variant A22G U26G U104C has a self-cleavage of 2.04.
Variant A22G U39A A43U G72A U73G A121G has a self-cleavage of 1.53.
U20C U47C U104C gave a self-cleavage of 2.14.
Work on U20C C61A A77G A92G yielded a self-cleavage of 0.
Work on U20C A22U U39C A64U G89A A142G yielded a self-cleavage of 0.04.
With U20G G35U A140G A142G the self-cleavage was 1.
U20C A30G U100C showed a self-cleavage of 1.25.
G21A A94G U119A showed a self-cleavage of 0.15.
G21A U23C C38A showed a self-cleavage of 1.11.
Work on U20G U109C U130C yielded a self-cleavage of 1.72.
For A22G U62A G139A, the self-cleavage was 0.15.
A22G U47C C116U U130C showed a self-cleavage of 1.51.
With U20G A24U U96C A124G the self-cleavage was 0.
Work on U20C U26C U132C yielded a self-cleavage of 0.85.
U20G G86A A121U A136G showed a self-cleavage of 0.13.
A22G A42G U62C C128A gave a self-cleavage of 0.1.
Variant U20A U109A U130C has a self-cleavage of 0.73.
Work on U20C A31U A107G yielded a self-cleavage of 2.21.
U20C U47G A136G gave a self-cleavage of 1.1.
A22G C56U A79G A138G gave a self-cleavage of 0.3.
With U20C A43G U47C C51U the self-cleavage was 1.47.
With G21A A43G U85C the self-cleavage was 0.19.
Variant U20G U62C A138G has a self-cleavage of 0.09.
A22G C116A A138G showed a self-cleavage of 1.21.
U20C U62C A67G A129G A140G gave a self-cleavage of 0.
U20C G53U U134A showed a self-cleavage of 0.87.
U20C U23A G125A U134G gave a self-cleavage of 1.41.
Variant U20C A57U A78G has a self-cleavage of 0.
G21A A22G U39C U87C C128U showed a self-cleavage of 0.13.
In the case of U20C A67G A140G, the self-cleavage is reported as 0.34.
With A22G A50U C101A U132C the self-cleavage was 1.36.
With A22G G36U U45A A57C G93C the self-cleavage was 0.02.
For A22G U29C G93U, the self-cleavage was 0.12.
In the case of U20C A107G A121U, the self-cleavage is reported as 1.95.
For U20C A65G A69G A138G, the self-cleavage was 0.
Variant A22G A69U U96A U132C has a self-cleavage of 0.03.
U20C U39C U52A U132C showed a self-cleavage of 1.96.
In the case of A22G G54A U100C U115A A141G, the self-cleavage is reported as 0.
For A22G A24U A69G, the self-cleavage was 0.92.
With U20A U73A U104A U112G C113U A117G A124U A129U the self-cleavage was 1.81.
U20C U52A A59U gave a self-cleavage of 0.6.
Variant U20C A30G U81A has a self-cleavage of 1.43.
Work on U20C U26C U62C C95A A107U A138G yielded a self-cleavage of 0.03.
U20C U26C A64U U87G showed a self-cleavage of 0.13.
Variant G21A A77G U132C has a self-cleavage of 1.93.
U20C C51A U130A gave a self-cleavage of 1.28.
For U20C G49U U62A U81C A121G A142U, the self-cleavage was 0.05.
Work on U20C A31U A77G yielded a self-cleavage of 1.26.
Work on U20A U81C G127A yielded a self-cleavage of 0.93.
U20C G82A A117G showed a self-cleavage of 0.54.
A22G G114A G135A gave a self-cleavage of 0.3.
U20C G75A A78G U100C showed a self-cleavage of 1.62.
A22G U46A U87A showed a self-cleavage of 0.02.
Work on U20C A42G A94G U112C yielded a self-cleavage of 0.59.
Variant U20C A30U U52A has a self-cleavage of 1.36.
U20A U102C A129U gave a self-cleavage of 1.1.
Work on U20G A65G U109A G114U yielded a self-cleavage of 0.02.
Work on A22G G34A G54A U73A yielded a self-cleavage of 0.32.
In the case of U20C U132C A136U, the self-cleavage is reported as 1.19.
With U20G A31G A78G U134C A138G the self-cleavage was 0.71.
Work on U20C A31U A64G U100C yielded a self-cleavage of 0.
Variant A22G A64U U119C has a self-cleavage of 0.55.
U20C U29G U39A C113A showed a self-cleavage of 1.67.
In the case of G21A A94G U102A G106A A117G U132G A142U, the self-cleavage is reported as 0.
U20C G34U U100A A124U gave a self-cleavage of 1.2.
Variant A22G U26A A92G has a self-cleavage of 0.16.
U20C A42G A57U A78G showed a self-cleavage of 0.06.
A22G U62C A136G showed a self-cleavage of 0.
With A22G A69G U73A C120U the self-cleavage was 1.18.
For A22G A77G A124U, the self-cleavage was 2.41.
Work on A22G A57G A129U U134G yielded a self-cleavage of 1.84.
Work on A22G A30G U39C yielded a self-cleavage of 0.92.
U20C A78G G97U A121G U134A showed a self-cleavage of 0.
Work on A22G U26C A77U A94U U100C C146U yielded a self-cleavage of 0.42.
Work on A22C U46C A142G U143C yielded a self-cleavage of 0.99.
A22G A94U U108A U115A gave a self-cleavage of 0.08.
With U20C A31G G40U A69G U81C G125U U143A the self-cleavage was 0.84.
A22G A64U U87C U100C showed a self-cleavage of 0.
With A22G G125A C146U the self-cleavage was 0.79.
U20C U47C A138G gave a self-cleavage of 1.57.
